Data published in PubChem BioAssay AID588855 (National Center for Advancing Translational Sciences (NCATS), 2011).
The campaign covered roughly 410,000 compounds. About 5,000 (1.2%) were called active. The inconclusive results got no clear call from the source; some entries with a clear call stand among them for comparison. Calls follow the shape of the dose curve; as a rule, active = well fitted inhibition curve with a large enough effect; inconclusive = small, poorly fitted or top-dose-only effect; inactive = no such curve, though single readings can be large or run the other way. Where the call is inconclusive, the potency comes from a doubtful curve fit.

test: qHTS for Inhibitors of TGF-b; conditions: HepG2 CAGA-GFP TGF-b/SMAD3 reporter, GFP fluorescence, 18 h, TGF-beta stimulated, 500 pg/mL final; series mostly up to 46.1 µM; also: nearly all actives have a fitted effect of over 65% in size
Outline: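 TGF-beta reporter screen: HEPG2 CAGA-GFP, 1% FBS, 500 pg/mL TGF-beta final, 18 h; per-cell GFP summed per well; curves fitted and categorized by class.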
Potency is read from the fitted curve at half-maximal effect; tags tell the direction and shape of the fitted curve.

Compound	Potency
COc1ccc([C@H]2CC(=O)C=C(c3ccnc4ccc(Cl)cc34)C2)cc1	inconclusive: 35.5 µM [inhibitor, single point]
COC(=O)C(C)n1nc(C)n(-c2ccc(C)cc2)c1=O (stereo not drawn)	inactive
CCCn1c(C(CO)Nc2nc(-c3cccc(Br)c3)cs2)nc2ccccc21 (stereo not drawn)	inconclusive: 22.4 µM [inhibitor, single point]
O=C(CSc1nc2ccccc2c(=O)n1NC(=O)Cc1ccccc1)NCc1ccccc1Cl	inactive
COc1cc(CNn2nnnc2N)cc(Br)c1OCc1c(Cl)cccc1Cl	inactive
CCN1CCN(CC2COc3ccccc3O2)CC1 (stereo not drawn)	inactive
Cc1c(C(=O)NCCNc2ncc(C(F)(F)F)cc2Cl)cccc1[N+](=O)[O-]	inconclusive: 35.5 µM [inhibitor, single point]
CC1(C(=O)NCCCNc2ncc(C(F)(F)F)cc2Cl)C=CCN1C(=O)c1ccccc1 (stereo not drawn)	inconclusive: 35.5 µM [inhibitor, single point]
O=C(NNC(=O)c1cc(-c2ccncc2)nc2ccccc12)c1cccc(Cl)c1	inactive
CC1CCN(S(=O)(=O)c2ccc(C(=O)OCc3ccc4c(c3)OCO4)cc2)CC1	inconclusive: 35.5 µM [inhibitor, single point]
COc1cc(OC)c(NC(=O)N2CCN3CCCCC3C2)cc1Cl (stereo not drawn)	inactive
CC(C)(C)c1cc(C(C)(C)C)c2oc(=O)c(-c3nc4ccc(C(=O)O)cc4[nH]3)cc2c1	inactive
Cc1nc2c(sc3nc(N4CCOCC4)c4c(c32)CC(C)(C)OC4)c(-c2ccc(Cl)cc2)c1C(=O)O	inconclusive: 10 µM [inhibitor, partial curve, poor fit]
COc1ccc(CCOC(=O)c2cccc(NC(C)=O)c2)cc1	inconclusive: 6.31 µM [inhibitor, partial curve, poor fit]
O=C(Nc1cccc(S(=O)(=O)N2CCCCCC2)c1)C1=COCCO1	inconclusive: 6.31 µM [inhibitor, single point]
C=CCn1c(COc2ccc3c(c2)CCCC3)nnc1SCC(=O)Nc1cccc(SC)c1	inconclusive: 20 µM [inhibitor, single point]
Cc1cc(=O)[nH]c(SCc2cccc3ccccc23)n1	inconclusive: 6.31 µM [inhibitor, single point]
CC1(c2nnc(Cc3ccccc3)o2)CC(c2ccc(F)cc2)=NO1 (stereo not drawn)	inconclusive: 0.891 µM [inhibitor, full curve, poor fit]
Cn1c(CO)cnc1SCC(=O)c1ccc(Cl)cc1	inconclusive: 14.1 µM [inhibitor, single point]
O=c1[nH]nc(CNc2ccc(O)cc2)c2ccccc12	inconclusive: 14.1 µM [inhibitor, single point]
CC(=C\C(=O)O)/C(=C/c1ccc(C)o1)C(=O)O	inconclusive: 35.5 µM [inhibitor, partial curve, poor fit]
O=C(Nc1ccccc1C(=O)Nc1nnc(C(F)(F)F)s1)c1ccccc1Cl	active: 3.55 µM

Compound	Potency
O=C(NCC1CCCCC1)c1cccc(S(=O)(=O)N2CCCC2)c1	inconclusive: 35.5 µM [inhibitor, single point]
CC(=O)Oc1cc2c(C(=O)NCCCN3CCOCC3)c(C)oc2c2ccccc12	inactive
COc1cc(-c2nnc(CSc3nnc(Nc4ccc(Oc5ccccc5)cc4)s3)o2)cc(OC)c1OC	inconclusive: 7.08 µM [inhibitor, partial curve]
CC(=O)Nc1ccc(NS(=O)(=O)c2ccc3[nH]c4c(c3c2)CCCCC4)cc1	inconclusive: 25.1 µM [inhibitor, single point]
CCOc1ccc(C(=O)NCC(c2ccc3c(c2)OCO3)N2CCN(c3ccc(F)cc3)CC2)cc1 (stereo not drawn)	inconclusive: 15.8 µM [inhibitor, partial curve]
COc1ccc(Cl)cc1NC(=S)N1CCC(c2ccc(C)cc2)C1 (stereo not drawn)	inactive
O=C(Nc1nc2c(s1)CCCC2)c1cccs1	inactive
CCN1CCN(c2ccc(S(=O)(=O)N3CCCCC3)cc2NC(=O)/C=C/c2ccc(Cl)cc2)CC1	inconclusive: 22.4 µM [inhibitor, single point]
C#CCOCCOCCOCCNc1nc(N2CCN(C(=O)CCCCCCCCCCNC(=O)Cn3cc(CCCCCN)nn3)CC2)nc(N2CCN(C(=O)CCCCCCCCCCNC(=O)[C@H](CO)n3cc(CCCCCN)nn3)CC2)n1	inconclusive: 17.8 µM [inhibitor, single point]
Cc1cc2c(cc(C(=O)OCC(=O)NCc3cccs3)n2C(C)C)o1	inconclusive: 11.2 µM [inhibitor, single point]
C/C(CCc1ccco1)=N\NC(=O)CNc1cccc2ccccc12	inconclusive: 12.6 µM [inhibitor, single point]
CSc1ccc(CCNC(=O)CCc2nnc3ccc(N4CCCCC4)nn23)cc1	inconclusive: 2.82 µM [inhibitor, partial curve, poor fit]
CC(C)CCNC(=O)C1CCN(S(=O)(=O)c2cccc3nsnc23)CC1	inactive
COC(=O)[C@H](CC(C)C)NC(=O)c1cc2c(cn1)[nH]c1ccccc12	inactive
CNC(=O)C1CCN(Cc2cc3ccccc3n2Cc2cccc(C)c2)CC1	inactive
O=C(c1cccc2cccc(O)c12)N1CCCCC1	inconclusive: 25.1 µM [inhibitor, single point]
O=C(Nc1ccc(O)cc1)/C(=C\C=C\c1ccccc1)NC(=O)c1ccccc1	inactive
Cc1cccc(NC(=S)NNC(=O)c2csc3c2CCCC3)c1	inconclusive: 35.5 µM [inhibitor, single point]
CC1=C(C(=O)N(C)C)CC(CC(=O)NCCCCc2ccccc2)C(=O)N1Cc1ccc(F)cc1 (stereo not drawn)	inactive
CC(=O)Nc1ccc(S(=O)(=O)NCc2cn3c(C)csc3n2)cc1	inactive
O=C(C[C@H]1C[C@H](C(=O)N2CCOCC2)[C@@]2(CCC3CCCC3)c3[nH]c4cc(-c5ccco5)ccc4c3CCN2C1=O)NCCC1=CCCCC1	inconclusive: 35.5 µM [inhibitor, single point]
